# PubChem BioAssay AID2675 (National Center for Advancing Translational Sciences (NCATS), 2010)
# In all, about 280,000 compounds went through this assay and about 100 (0.036%) were called active. Inconclusive means that the source gave no clear call. Such entries were picked first, then a sample of the others. Calls come from the whole dose curve; as a rule, active = well fitted inhibition curve with a large enough effect in the signal ratio, with a control signal flat (not every such curve was filed as active); inconclusive = small, poorly fitted or top-dose-only effect, or effect the other way, or a change in a side signal; inactive = no such curve, though single readings can be large or run the other way; the % refers to the signal ratio. Potencies beside an inconclusive call are fits to weak or partial responses and may not hold up. “Side channel” marks fits to a control or component signal instead of the main read-out.
# Target: Muscleblind-like protein 1 (Homo sapiens) (UniProt Q9NR56)
# Assay: qHTS Assay for Inhibitors of MBNL1-poly(CUG) RNA binding
# Conditions: TR-FRET MBNL1-His/biotin-(CUG)12 binding, 665/545 ratio; activity change, negative = inhibition: at 57.5 µM (top of the series)
# Outline: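 TR-FRET readout: Ex 340 nm, 665/545 nm emission ratio, normalized to buffer-only (basal) and MBNL1-(CUG)12 controls. Complex of MBNL1-His with Biotin-(CUG)12, compounds 92 nM–58 uM, incubated 60 min at room temperature.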
# % is set by controls: 0 for no effect and ±100 for the full control effect; potency is the fitted concentration of half-maximal effect; tags give direction and shape of the fitted curve or compound fluorescence and quenching.
# Chain of UniProt Q9NR56 (Q9NR56 whole entry, looked up): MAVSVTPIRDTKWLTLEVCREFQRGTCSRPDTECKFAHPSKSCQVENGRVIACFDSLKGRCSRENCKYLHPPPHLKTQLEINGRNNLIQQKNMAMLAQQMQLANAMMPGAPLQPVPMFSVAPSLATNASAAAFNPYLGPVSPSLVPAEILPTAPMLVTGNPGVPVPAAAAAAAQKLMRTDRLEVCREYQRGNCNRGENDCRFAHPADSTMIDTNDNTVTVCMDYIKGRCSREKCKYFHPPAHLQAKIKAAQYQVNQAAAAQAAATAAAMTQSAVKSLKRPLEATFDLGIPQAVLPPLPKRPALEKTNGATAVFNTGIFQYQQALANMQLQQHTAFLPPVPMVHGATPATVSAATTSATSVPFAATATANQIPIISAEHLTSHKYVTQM
SMILES,Potency,"activity change, negative = inhibition"
Cc1ccc(NC(=O)CSc2nnc(-c3ccco3)c(-c3ccco3)n2)cc1,"inconclusive: 25.1 µM [quencher, side channel, partial curve]",–
CCOc1cc(/C=C2\SC(N)=NC2=O)ccc1O,"inconclusive: 15.8 µM [quencher, side channel, partial curve]",–
CCOC(=O)Cn1nc(-c2ccccc2)c(-c2ccccc2)nc1=O,"inconclusive: 8.91 µM [quencher, partial curve]",–
CCOc1ccc(/C=N/Nc2nc(=O)[nH]nc2C)cc1OC,"inconclusive: 25.1 µM [quencher, side channel, partial curve]",–
O=C(Cn1nc(-c2ccccc2)ccc1=O)NCc1ccc(F)cc1,"inconclusive: 39.8 µM [quencher, side channel, single point]",–
CCCCC(=O)NC(=S)Nc1cc(C(=O)O)ccc1Cl,"inconclusive: 0.1 µM [fluorescent, side channel, full curve, poor fit]",–
O=C(/C=C/c1ccc(Cl)cc1)NCCCn1ccnc1,"inconclusive: 44.7 µM [quencher, side channel, single point]",–
O=[N+]([O-])c1ccc(Cl)c(C[n+]2cccc3ccccc32)c1,"inconclusive: 14.1 µM [quencher, side channel, partial curve]",–
Cc1ccc2nc3c(cc2c1)c(NC(=O)c1cccnc1)nn3C,"inconclusive: 15.8 µM [quencher, side channel, partial curve]",–
Oc1ccc(N=Nc2ccc3c(c2)OCCO3)c(O)c1,"inconclusive: 22.4 µM [quencher, side channel, partial curve]",–
NC(=O)CCn1c(C(=O)c2ccc(Cl)cc2)c2ccccc2[n+]1[O-],"inconclusive: 14.1 µM [quencher, side channel, partial curve]",–
CCOc1ccc(CCNC(=O)CCNC(=O)c2ccc(Br)cc2)cc1OCC,"inconclusive: 4.47 µM [quencher, side channel, full curve]",–
COc1cccc(/C=N\NC(=O)c2ccc(C)nc2)c1,–,inactive: 6.81%
CC1=CC(=O)C=C(C)C1=NOC(=O)c1cccc([N+](=O)[O-])c1,"inconclusive: 15.8 µM [quencher, side channel, partial curve]",–
O=[N+]([O-])c1c(Nc2ccc(O)cc2)cc(Cl)c2nonc12,"inconclusive: 5.01 µM [quencher, side channel, partial curve]",–
CCCC[n+]1ccn(C2=C([O-])c3ccccc3C(=O)/C2=N\S(=O)(=O)c2ccc(Cl)cc2)c1,"inconclusive: 2 µM [quencher, side channel, full curve, poor fit]",–
O=[N+]([O-])c1ccccc1Nc1ccccc1,"inconclusive: 20 µM [quencher, side channel, partial curve]",–
N#Cc1ccccc1Cn1cc(/C=C/[N+](=O)[O-])c2ccccc21,–,inactive: 3.37%

SMILES,Potency,"activity change, negative = inhibition"
Cc1ccc(C(=O)Nc2nc(-c3ccc([N+](=O)[O-])cc3)cs2)o1,"inconclusive: 0.199 µM [quencher, side channel, full curve]",–
OCCCNC(=S)Nc1ccc2nc(-c3ccccn3)c(-c3ccccn3)nc2c1,"inconclusive: 8.91 µM [quencher, side channel, partial curve]",–
CCOc1ccccc1NC(=O)CNC(=O)c1nn(-c2ccc(OC)c(OC)c2)c(=O)c2ccccc12,"inconclusive: 12.6 µM [quencher, side channel, partial curve]",–
O=C(O)CC1S/C(=N/N=C/C=C/c2ccccc2)NC1=O (stereo unspecified),"inconclusive: 22.4 µM [activator, partial curve]",–
CN(C)CCCN(C(=O)c1cc(-c2cccs2)nc2ccccc12)c1nc2c(F)cccc2s1,–,inactive: 8.92%
COCC(C)Nc1ccc(S(=O)(=O)N2CCCC2)cc1[N+](=O)[O-] (stereo unspecified),"inconclusive: 12.6 µM [quencher, side channel, partial curve]",–
Cc1nc(NCCc2ccccc2)c(C#N)c(C)c1[N+](=O)[O-],"inconclusive: 0.891 µM [quencher, side channel, partial curve]",–
O=C(CNC(=O)c1ccccc1Br)N/N=C\c1cc([N+](=O)[O-])cc(Br)c1O,"inconclusive: 31.6 µM [quencher, side channel, single point]",–
CC(C)(C)Nc1nc2ccc([N+](=O)[O-])cc2o1,"inconclusive: 11.2 µM [quencher, side channel, partial curve]",–
COC(=O)c1sc(=S)n(-c2cc(F)ccc2F)c1N,"inconclusive: 25.1 µM [quencher, side channel, single point]",–
CCCCOC(=O)C1=C(C)Nc2ncnn2C1c1ccc(OC)c(OC)c1OC (stereo unspecified),"inconclusive: 6.31 µM [quencher, side channel, single point]",–
CS(=O)(=O)N(Cc1ccccc1F)c1ccccc1,"inconclusive: 25.1 µM [fluorescent, side channel, partial curve, poor fit]",–
O=C(CSc1ccc([N+](=O)[O-])cn1)Nc1ccc(N2CCOCC2)c(Cl)c1,"inconclusive: 14.1 µM [quencher, side channel, partial curve]",–
O=C(N/N=C/c1cc([N+](=O)[O-])ccc1N1CCCCCC1)c1ccccn1,"inconclusive: 11.2 µM [quencher, side channel, partial curve]",–
N=C1/C(=C\c2coc3ccccc3c2=O)C(=O)N=C2SC(c3ccncc3)=NN12,"inconclusive: 20 µM [quencher, side channel, partial curve]",–
O=c1cnn(Cc2ccc(F)cc2)c2ccccc12,"inconclusive: 11.2 µM [quencher, side channel, partial curve]",–
CSC1=N/C(=C/c2ccc(-n3cncn3)cc2)C(=O)N1,"inconclusive: 6.31 µM [quencher, side channel, partial curve]",–
COc1ccc(N=CC2=C(O)c3ccccc3C2=O)c(OC)c1,"inconclusive: 4.47 µM [quencher, side channel, full curve, poor fit]",–
